Results on 90 molecules are retold here after PubChem BioAssay AID360 (National Center for Advancing Translational Sciences (NCATS), 2006).

Each structure is given as a SMILES string. Out of some 48,000 compounds screened, about 550 (1.1%) were called active. About 4% were inconclusive and are not listed. No stated cut-off is given here; in the data, active means potency below about 15 µM; inconclusive means mostly about 16 µM to 33 µM; inactive means weaker than that. The list shows a part of the results. Where only a bound is given, the exact number is not on record here.
Potency means the concentration at half of the fitted maximal effect.

The assay concerns the target Lysosomal acid glucosylceramidase (Homo sapiens) (UniProt P04062). Put plainly: Glucocerebrosidase.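 Further: the screen sought inhibitors.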 Conditions: purified enzyme, resorufin glucoside fluorescence (screen aimed at inhibitors), 20 min. The procedure, abridged: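 Normal human glucocerebrosidase (0.2 nM final) was assayed with resorufin β-D-glucopyranoside (30 uM final) in 50mM citric acid/KH2PO4, 10mM sodium taurocholate, 0.01% tween-20, pH 5.9. Compounds were titrated; fluorescence (Ex 548, Em 600) read after 20 min at RT.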
UniProt P04062, sequence (P04062 whole entry, looked up): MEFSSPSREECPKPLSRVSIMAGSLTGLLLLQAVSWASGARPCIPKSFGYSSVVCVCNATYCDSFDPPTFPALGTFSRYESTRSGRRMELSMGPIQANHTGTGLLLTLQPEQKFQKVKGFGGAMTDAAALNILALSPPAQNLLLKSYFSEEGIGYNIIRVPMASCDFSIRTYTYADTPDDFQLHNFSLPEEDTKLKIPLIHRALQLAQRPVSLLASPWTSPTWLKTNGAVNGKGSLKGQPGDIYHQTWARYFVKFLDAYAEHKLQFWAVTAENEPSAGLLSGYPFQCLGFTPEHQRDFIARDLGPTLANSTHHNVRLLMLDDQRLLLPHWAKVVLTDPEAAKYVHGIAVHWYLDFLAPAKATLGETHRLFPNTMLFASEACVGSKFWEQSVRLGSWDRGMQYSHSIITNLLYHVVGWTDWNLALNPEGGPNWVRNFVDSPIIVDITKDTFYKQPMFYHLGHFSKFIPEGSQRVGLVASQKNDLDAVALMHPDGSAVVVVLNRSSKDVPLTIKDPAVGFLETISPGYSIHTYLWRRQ
As to `CCOC(=O)c1cc(-c2ccc3c(c2)OCCO3)nc2c1c(C)nn2CCC#N`, the Potency was inactive: > 76.9 µM.

In the case of `CCOC(=O)c1nnn(-c2nonc2N)c1CN(C)Cc1ccccc1`, the Potency was inactive: > 76.9 µM.

Regarding `COC(=O)c1cccc(-n2nnnc2SCC(=O)Nc2cc(C)on2)c1`, the Potency was inactive: > 76.9 µM.

In the case of `COc1ccccc1OCC(O)Cn1c(Br)nc2c1c(=O)[nH]c(=O)n2C` (stereo not given), the Potency is inactive: > 76.9 µM.

As for `Cc1cccc(NC(=O)Nc2cc(C)on2)c1`, the Potency is inactive: > 76.9 µM.

For `Cc1ccsc1C(=O)OCC(=O)NCc1ccc2c(c1)OCO2`, the Potency was inactive: > 76.9 µM.

With `CS(=O)(=O)N(CC(=O)NCC1CCCO1)c1cc(Cl)cc(Cl)c1` (stereo not given), the Potency was inactive: > 76.9 µM.

Consider `Cc1nc(SCC(=O)N2CCN(c3ccccc3)CC2)c2oc3ccccc3c2n1`, for which the Potency was inactive: > 76.9 µM.

As for `O=C(NCCCN1CCN(C2CCCCC2)CC1)Nc1ccccc1C(F)(F)F`, the Potency was inactive: > 76.9 µM.

Take `CCOc1ccc(N2C(=O)CC(NCCc3ccncc3)C2=O)cc1` (stereo not given): the Potency is inactive: > 76.9 µM.

On to `O=C(Cn1c(=O)oc2ccccc21)Nc1ccc2c(c1)OCCO2`, for which the Potency was inactive: > 76.9 µM.

Take `O=C(O)C1Cc2c([nH]c3ccccc23)C(c2ccc3c(c2)OCO3)N1` (stereo not given): the Potency was inactive: > 76.9 µM.

Regarding `CC1=CC2(C#N)C3(N=C(N)C2(C#N)C(c2ccccc2)N1)OCCO3` (stereo not given), the Potency is inactive: > 76.9 µM.

As for `O=C(O)c1cn(-c2ccccc2)nc1-c1cccnc1`, the Potency is inactive: > 76.9 µM.

For `COC(=O)Cc1c(C)nc2nc(NCc3c(F)cccc3Cl)[nH]n2c1=O`, the Potency is inactive: > 76.9 µM.

`Cc1nnc(SCCN2C(=O)c3ccccc3C2=O)[nH]c1=O`: the Potency is inactive: > 76.9 µM.

On to `CCOc1ccc2nc(NC(=O)CSC3=NCCS3)sc2c1`, for which the Potency was inactive: > 76.9 µM.

As for `COc1ccc(-c2ccc(-c3nnc(-c4cc(OC)ccc4OC)o3)cc2)cc1`, the Potency was inactive: > 76.9 µM.

Regarding `COC(=O)c1sc(NC(=O)COc2ccccc2)nc1C`, the Potency is inactive: > 76.9 µM.

In the case of `CC(C)(C)c1ccc(NC(=O)COC(=O)C2=COCCO2)cc1`, the Potency was inactive: > 76.9 µM.

For the molecule `C=CCn1cnc2c(c1=O)c1nc3ccccc3nc1n2-c1ccccc1`, the Potency was inactive: > 76.9 µM.

Take `Cc1cccc2cc(CN(Cc3ccco3)C(=O)NC3CCCCC3)c(=O)[nH]c12`: the Potency was inactive: > 76.9 µM.

`Cn1c(=O)c2c(nc(N3CCCCC3)n2CCCNC2=NCCCC2)n(C)c1=O`: the Potency was inactive: > 76.9 µM.

In the case of `COc1ccccc1N1CCN(C(=O)COc2ccc(Cl)cc2)CC1`, the Potency was inactive: > 76.9 µM.

Turning to `COc1ccc(-c2onc3ccc(Cl)cc23)cc1OC`, the Potency is inactive: > 76.9 µM.

For `Cc1ccc(NC2=NC(C(=O)Nc3ccc(C)c(C)c3)CC(=O)N2)cc1` (stereo not given), the Potency was inactive: > 76.9 µM.

As to `O=C(NCC1CCS(=O)(=O)C1)NCC1CCS(=O)(=O)C1` (stereo not given), the Potency is inactive: > 76.9 µM.

On to `CCC1CCCN1Cn1cnc2c([nH]c3ccc(OC)cc32)c1=O` (stereo not given), for which the Potency is inactive: > 76.9 µM.

With `O=C(Cn1cnnn1)Nc1ccccc1Cc1ccccc1`, the Potency is inactive: > 76.9 µM.

As for `Cc1ccc2nc(NC3=NCN(Cc4ccc5c(c4)OCO5)CN3)nc(C)c2c1`, the Potency is inactive: > 76.9 µM.

With `COc1cc(C)c(Cl)cc1S(=O)(=O)N(C)C`, the Potency is inactive: > 76.9 µM.

Regarding `Cc1c(C(=O)NCc2ccccn2)oc2ccc(S(=O)(=O)N3CCOCC3)cc12`, the Potency is inactive: > 76.9 µM.

With `O=C(CN(c1ccc(F)cc1)S(=O)(=O)c1ccc2c(c1)OCCO2)NCc1ccccn1`, the Potency is inactive: > 76.9 µM.

Take `COc1cc(Br)cc(CN2CCN(C/C=C/c3ccccc3)CC2)c1O`: the Potency is inactive: > 76.9 µM.

For the molecule `Cc1ccc(S(=O)(=O)NCc2ccc(C(=O)NCCCN3CCN(C)CC3)cc2)cc1`, the Potency was inactive: > 76.9 µM.

As for `Cc1cc(C)c2nc(C(F)(F)F)nc(N3CC(C)OC(C)C3)c2c1` (stereo not given), the Potency is inactive: > 76.9 µM.

`CSc1nc2oc3c(c2c2nncn12)CC(C)(C)SC3`: the Potency is inactive: > 76.9 µM.

Consider `Cc1cccc(Nc2ccccc2C(=O)OCC(=O)N2CCOCC2)c1C`, for which the Potency was inactive: > 76.9 µM.

Regarding `O=C(CSc1nnc(-c2cccnc2)n1Cc1ccco1)c1ccccc1`, the Potency is inactive: > 76.9 µM.

For `O=C(O)C1CCCCC1C(=O)Nc1ccccn1` (stereo not given), the Potency was inactive: > 76.9 µM.

`CC(C)(C)OC(=O)N[C@H](Cc1ccccc1)C(=O)N1CCC(C(=O)O)CC1`: the Potency was inactive: > 76.9 µM.

`COc1ccccc1N1CCN(C(c2cc3ccc(C)cc3[nH]c2=O)c2nnnn2C2CCCC2)CC1` (stereo not given): the Potency result is “inactive”.

For `O=C(NC1CC2CCCC(C1)N2S(=O)(=O)c1ccccc1)c1ccccc1` (stereo not given), the Potency is inactive: > 76.9 µM.

In the case of `COc1ccccc1NC(=O)CN1CCC(n2c(C)nc3cc(F)ccc32)CC1`, the Potency was inactive: > 76.9 µM.

Turning to `CCCS(=O)(=O)N1CCCC(C(=O)NCCCN(C)c2ccccc2)C1` (stereo not given), the Potency is inactive: > 76.9 µM.

Consider `O=C(NC1CCc2ccccc21)C1CCN(S(=O)(=O)c2ccc(-n3cnnn3)cc2)CC1` (stereo not given), for which the Potency was inactive: > 76.9 µM.

`CCOC(=O)COc1ccc2nsnc2c1Cl`: the Potency was inactive: > 76.9 µM.

For the molecule `C=CCn1c(C)cc(C(=O)CSc2nnc(NCc3ccccc3)s2)c1C`, the Potency is inactive: > 76.9 µM.

Consider `CC(C)(C)NC(=O)C(Cc1ccccc1)NS(=O)(=O)c1cccc2nsnc12` (stereo not given), for which the Potency was inactive: > 76.9 µM.

`Cc1ccc(S(=O)(=O)NC(=O)COc2ccccc2C(N)=O)cc1`: the Potency is inactive: > 76.9 µM.

Turning to `O=C(CN1C(=O)CSc2ccccc21)NCCC1=CCCCC1`, the Potency was inactive: > 76.9 µM.

Take `Cc1ccc(-c2nc3cccnc3s2)cc1NC(=O)c1ccco1`: the Potency is inactive: > 76.9 µM.

Regarding `CC1=Nn2c(nnc2C2CCCCC2)SC1`, the Potency is inactive: > 76.9 µM.

Turning to `CC1CCN(S(=O)(=O)c2ccc(S(=O)(=O)NCC3COCCO3)cc2)CC1` (stereo not given), the Potency is inactive: > 76.9 µM.

For the molecule `CCn1c(SCc2nc3ccccc3nc2C)nnc1-c1cccs1`, the Potency is inactive: > 76.9 µM.

For the molecule `COc1cc(C2Nc3cccc4cccc(c34)N2)cc(OC)c1O`, the Potency is inactive: > 76.9 µM.

For the molecule `O=C(Nc1ccccc1N1CCN(C(=O)c2ccc(Cl)cc2)CC1)c1cc2ccccc2o1`, the Potency is inactive: > 76.9 µM.

Consider `CCc1ccc2[nH]c(=O)c(CN(CCN(C)C)C(=O)Nc3ccccc3)cc2c1`, for which the Potency is inactive: > 76.9 µM.

In the case of `Cc1cc(Cl)c(S(=O)(=O)Nc2ccccn2)cc1OCC(N)=O`, the Potency was inactive: > 76.9 µM.

For the molecule `Cn1c2c(c(=O)n(C)c1=O)C(c1ccc(O)cc1)Nc1ccccc1O2` (stereo not given), the Potency was inactive: > 76.9 µM.

Regarding `O=C(NCC1COc2ccccc2O1)c1ccc(Cl)cc1` (stereo not given), the Potency is inactive: > 76.9 µM.

As to `O=S1(=O)N=C(N2CCc3ccccc3C2)c2ccccc21`, the Potency was inactive: > 76.9 µM.

For `COc1cccc(N(C(=O)c2ccco2)C(C(=O)NC2CCCC2)c2cccnc2)c1` (stereo not given), the Potency was inactive: > 76.9 µM.

In the case of `Cc1ccc(C(=O)Nc2nc3ccccc3c(=O)s2)cc1`, the Potency is inactive: > 76.9 µM.

For `O=C(CSc1nnnn1-c1ccc2c(c1)OCCO2)OC1CCCCC1`, the Potency was inactive: > 76.9 µM.

`Cc1nnc(SCC(=O)N2CCN(S(=O)(=O)c3ccccc3)CC2)[nH]c1=O`: the Potency was inactive: > 76.9 µM.

Regarding `Cc1cccc(NC(=O)CSc2nnc(-c3ccc(S(=O)(=O)N4CCCC4)cc3)o2)c1`, the Potency is inactive: > 76.9 µM.

Regarding `Cc1[nH]n2c(=O)cc(C(C)C)nc2c1-c1ccccc1`, the Potency is inactive: > 76.9 µM.

In the case of `COc1ccccc1Cn1c(=S)[nH]c2cc(C(=O)N3CCN(C)CC3)ccc2c1=O`, the Potency is inactive: > 76.9 µM.

Take `COC(=O)c1c(NS(=O)(=O)c2cccs2)sc2c1CCCC2`: the Potency is inactive: > 76.9 µM.

Turning to `c1ccn2c(c1)nc1c2nc2ccccn21`, the Potency was inactive: > 76.9 µM.

As for `Fc1ccccc1Cn1nnc2c(-n3ccnc3)ncnc21`, the Potency is inactive: > 76.9 µM.

For the molecule `CC(=O)NC(Cc1c[nH]c2ccccc12)C(=O)OCC(=O)Nc1cc(C)on1` (stereo not given), the Potency is inactive: > 76.9 µM.

`Cc1ccc(C(=O)O)c(C(=O)Nc2nc(C)cs2)c1`: the Potency is inactive: > 76.9 µM.

On to `COc1cccc(OC)c1C(=O)NCCN1CCN(C(=O)c2c(OC)cccc2OC)CC1`, for which the Potency was inactive: > 76.9 µM.

Turning to `COC(=O)c1cc(NC(=O)C2COc3ccccc3O2)cc(C(=O)OC)c1` (stereo not given), the Potency is inactive: > 76.9 µM.

Take `CN1CCCCCC1=NC1=C(C#N)CCCC1`: the Potency was inactive: > 76.9 µM.

For the molecule `CC(=O)Nc1cccc(N(C)S(C)(=O)=O)c1`, the Potency was inactive: > 76.9 µM.

As to `COc1ccc(-n2nnc3c(=O)n(CC(=O)N4CCCC4)cnc32)cc1`, the Potency is inactive: > 76.9 µM.

In the case of `Cc1ccc(-c2nc(N)n(C(=O)c3cccnc3)n2)cc1`, the Potency is inactive: > 76.9 µM.

Consider `CCCCn1c(SCC(=O)NCc2ccco2)nc2ccc(N3CCOCC3)cc2c1=O`, for which the Potency was inactive: > 76.9 µM.

In the case of `O=C(OCC(=O)c1ccccc1Br)c1ccccn1`, the Potency was inactive: > 76.9 µM.

Consider `O=C(CN1CCOCC1)N1CCN(S(=O)(=O)c2ccccc2)C1c1ccccc1` (stereo not given), for which the Potency is inactive: > 76.9 µM.

For the molecule `Cc1nn2cc(-c3ccc(Cl)cc3)nc2s1`, the Potency was inactive: > 76.9 µM.

On to `COc1cc(C(=O)Nc2nc(N)n(-c3ccccc3)n2)cc(OC)c1OC`, for which the Potency is inactive: > 76.9 µM.

Take `CC(=O)c1c(C)[nH]c(C(=O)OCCCCN2C(=O)c3ccccc3C2=O)c1C`: the Potency is inactive: > 76.9 µM.

In the case of `O=C(NCc1nc2ccccc2[nH]1)c1ccco1`, the Potency was inactive: > 76.9 µM.

With `C/C(Cl)=C/Cn1c(SCC(C)C)nc2c1c(=O)[nH]c(=O)n2C`, the Potency is inactive: > 76.9 µM.

In the case of `C(=N\c1nc2ccccc2n1CCN1CCCCC1)/c1cccs1`, the Potency was inactive: > 76.9 µM.

Regarding `CCOCCCn1c(SCC(=O)NC(C)C)nc2ccccc2c1=O`, the Potency was inactive: > 76.9 µM.
